The values below come from article PMC4538830.

Amino acid sequences for entries named in this document (tags omitted). Residues count along the entry.
UniProt Q99KP6: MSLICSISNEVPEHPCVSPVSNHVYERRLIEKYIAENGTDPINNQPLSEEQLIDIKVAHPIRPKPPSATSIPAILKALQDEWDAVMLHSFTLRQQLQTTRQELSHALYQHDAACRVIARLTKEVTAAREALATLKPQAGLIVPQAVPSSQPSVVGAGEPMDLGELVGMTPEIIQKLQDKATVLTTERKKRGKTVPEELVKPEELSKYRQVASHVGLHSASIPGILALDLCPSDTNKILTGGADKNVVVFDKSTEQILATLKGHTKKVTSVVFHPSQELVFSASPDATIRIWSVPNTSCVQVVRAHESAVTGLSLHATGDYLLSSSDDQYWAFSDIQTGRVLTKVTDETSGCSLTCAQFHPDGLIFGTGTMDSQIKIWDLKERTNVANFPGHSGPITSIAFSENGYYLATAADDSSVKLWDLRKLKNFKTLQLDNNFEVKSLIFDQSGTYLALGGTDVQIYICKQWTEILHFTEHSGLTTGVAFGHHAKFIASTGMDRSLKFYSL
UniProt Q99459, residues 1-195: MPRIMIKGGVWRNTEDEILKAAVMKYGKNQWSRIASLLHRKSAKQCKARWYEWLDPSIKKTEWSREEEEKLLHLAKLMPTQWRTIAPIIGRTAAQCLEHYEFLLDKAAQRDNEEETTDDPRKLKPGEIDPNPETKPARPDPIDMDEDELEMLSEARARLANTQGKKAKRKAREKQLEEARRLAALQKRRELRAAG
UniProt Q6A068: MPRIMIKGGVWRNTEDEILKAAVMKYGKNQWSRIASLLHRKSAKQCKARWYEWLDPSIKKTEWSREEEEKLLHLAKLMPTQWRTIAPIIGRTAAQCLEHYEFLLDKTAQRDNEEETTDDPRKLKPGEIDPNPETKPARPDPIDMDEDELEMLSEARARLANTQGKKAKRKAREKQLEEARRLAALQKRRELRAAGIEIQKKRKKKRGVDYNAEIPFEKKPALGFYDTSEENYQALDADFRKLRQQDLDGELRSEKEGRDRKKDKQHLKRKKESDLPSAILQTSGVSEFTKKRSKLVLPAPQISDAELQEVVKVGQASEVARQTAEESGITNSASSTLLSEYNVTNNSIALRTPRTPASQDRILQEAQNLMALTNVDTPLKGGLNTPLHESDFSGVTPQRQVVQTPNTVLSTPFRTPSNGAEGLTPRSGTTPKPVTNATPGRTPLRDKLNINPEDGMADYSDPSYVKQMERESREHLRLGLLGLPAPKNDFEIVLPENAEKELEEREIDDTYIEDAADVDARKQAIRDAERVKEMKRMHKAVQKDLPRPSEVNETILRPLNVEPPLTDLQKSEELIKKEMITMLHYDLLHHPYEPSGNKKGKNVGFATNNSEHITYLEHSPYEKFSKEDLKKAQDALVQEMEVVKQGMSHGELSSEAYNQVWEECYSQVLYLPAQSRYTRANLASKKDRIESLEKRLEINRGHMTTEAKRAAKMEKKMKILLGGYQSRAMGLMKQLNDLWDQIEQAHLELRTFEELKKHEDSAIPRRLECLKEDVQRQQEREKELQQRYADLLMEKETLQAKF

Results are given in words; binding and its absence hold for the method and conditions named. For some of these results: Binding seen in cells or lysates may run through a third protein. Some entries that bind do so weakly or less than the wild type. Tags and fused reporters may be left off the sequences shown.

The target in one experiment is T1, human HA-CWC15 (human) (UniProt Q9P013).
T1 sequence: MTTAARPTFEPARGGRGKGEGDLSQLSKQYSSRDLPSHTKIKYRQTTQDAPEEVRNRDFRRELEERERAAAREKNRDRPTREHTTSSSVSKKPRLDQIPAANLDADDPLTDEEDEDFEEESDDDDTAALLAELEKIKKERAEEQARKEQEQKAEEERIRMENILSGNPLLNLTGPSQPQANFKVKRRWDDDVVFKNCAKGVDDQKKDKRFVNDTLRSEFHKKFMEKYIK
The experiment is described as follows: co-IP; anti-HA resin, 1 h at 4°C, triton lysis buffer with benzonase; lysates of LPS and IL-4 stimulated mouse B cells transduced with human HA-CWC15; control (Ctnnbl1+/flx) and CTNNBL1-deficient (Ctnnbl1−/flx) cells; western blot. Background: Immunoblotting shows a protein as a band on a membrane.

The target of experiment [1] is T2, GST-CWC15[80–229] (human) (UniProt Q9P013).
T2 sequence: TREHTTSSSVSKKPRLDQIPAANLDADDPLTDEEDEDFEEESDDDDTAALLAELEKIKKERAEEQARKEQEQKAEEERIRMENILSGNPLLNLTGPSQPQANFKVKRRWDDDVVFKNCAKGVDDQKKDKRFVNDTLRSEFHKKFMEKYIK
Description: condition: only 0.6 mM KAc (so in the source) or higher, with His-CTNNBL1[77–563] present; pull-down; GST-CWC15[80–229] as bait on glutathione Sepharose with both MBP-CDC5L[1–195] and His-CTNNBL1[77–563] at increasing potassium acetate (0 to 1 M); both purified.

Experiment [2] addresses T2, GST-CWC15[80–229] (human). Description: pull-down; GST-CWC15[80–229] as bait on glutathione Sepharose with MBP-CDC5L[1–195] at increasing potassium acetate (0 to 1 M); both purified.

Regarding “mouse PRPF19 (from UniProt Q99KP6 1-504)”, the binding result with human HA-CWC15 (human) was “binds”.

For “MBP-CDC5L[1–195] (from UniProt Q99459 1-195) (domain or fragment)”, the binding entry in experiment [1] is reported as “no binding”; in experiment [2], “binds weakly”. Turning to mouse CDC5L (from UniProt Q6A068 1-802), in the experiment with human HA-CWC15 (human), the binding entry is “binds”.
